The source of these data is patent publication US8273855 (JIANGSU NOVAVAC BIO TEC, dated 2012).

The test has as its target T1, F3 on F3-transfected CHO cells (UniProt P12960 21-1001).
T1 construct: whole, on cells; also called F3-CHO; F3-expressing CHO cells
T1 sequence (looked up): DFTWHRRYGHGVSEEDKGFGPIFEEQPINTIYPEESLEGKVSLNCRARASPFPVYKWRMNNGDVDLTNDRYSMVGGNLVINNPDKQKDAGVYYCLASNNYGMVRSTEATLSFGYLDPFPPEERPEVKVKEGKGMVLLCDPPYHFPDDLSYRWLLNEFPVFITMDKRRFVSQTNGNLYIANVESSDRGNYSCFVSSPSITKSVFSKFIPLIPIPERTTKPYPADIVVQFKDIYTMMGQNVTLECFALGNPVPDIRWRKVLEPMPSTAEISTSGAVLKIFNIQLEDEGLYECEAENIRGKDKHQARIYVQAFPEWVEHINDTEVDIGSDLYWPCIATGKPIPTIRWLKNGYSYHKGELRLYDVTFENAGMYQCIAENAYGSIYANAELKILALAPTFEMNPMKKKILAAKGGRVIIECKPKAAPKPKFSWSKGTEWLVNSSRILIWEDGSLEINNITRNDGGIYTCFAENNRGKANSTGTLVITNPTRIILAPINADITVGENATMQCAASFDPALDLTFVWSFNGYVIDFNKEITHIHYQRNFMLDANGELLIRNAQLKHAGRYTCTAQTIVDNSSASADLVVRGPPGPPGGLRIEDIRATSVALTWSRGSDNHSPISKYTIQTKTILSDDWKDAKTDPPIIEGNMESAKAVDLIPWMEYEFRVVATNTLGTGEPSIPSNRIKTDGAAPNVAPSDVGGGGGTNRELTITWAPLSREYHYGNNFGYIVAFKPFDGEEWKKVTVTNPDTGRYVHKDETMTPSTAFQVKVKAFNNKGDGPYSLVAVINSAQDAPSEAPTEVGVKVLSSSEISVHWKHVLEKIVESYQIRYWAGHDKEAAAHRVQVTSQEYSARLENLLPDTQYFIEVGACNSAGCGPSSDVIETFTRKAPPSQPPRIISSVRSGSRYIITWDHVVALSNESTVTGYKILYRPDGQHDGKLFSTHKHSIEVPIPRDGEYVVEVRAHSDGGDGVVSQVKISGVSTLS
Kind of test: cell adhesion assay, F3-CHO cells on coated substrate.

B1: GST (other)
chain: not shown
notes: Control; also called glutathione S-transferase
B1: the binding result is given as “no binding (tested: spots of 1.5 µl of 5 µM GST)”.
